# From article PMC12040169 (PLOS Biology, 2025)
# This is one part of the list.
# System: T1, C. trachomatis L2/434/Bu expressing GFP (CTL2-GFP)
# T1 construct: L2/434/Bu GFP intracellular growth in HeLa cells
# Set-up: species or system HeLa; C. trachomatis total inclusion area by high-content imaging, normalised to DMSO
# Details: total inclusion area; 28.5 h, 10 µM; inhibitor
# Procedure, shortened: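 Bulk GFP and resorufin signals were read first. Wells were then fixed, stained with Hoechst and imaged to detect GFP inclusions and host nuclei. MICs followed the previously described calculation.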
row,SMILES,% of control remaining
1,CCCCCC(=O)N1CCc2cc(N3CC(CNC(C)=O)OC3=O)ccc21 (centres unmarked) [CBK007646],89.1054
2,COc1ccc(-c2nnc(SCC(=O)Nc3ccccc3[N+](=O)[O-])n2C)cc1 [CBK265609],107.478
3,COCCNC(=O)c1cc(-c2ccc(C)s2)nc2c1cnn2C(C)C [CBK305051],93.1752
4,Cc1[nH]c(=O)[nH]c(=S)c1C(=O)Nc1ccc2c(c1)OCO2 [CBK115519],98.6788
5,O=C(O)c1cccnc1SC1CC(=O)N(c2cccc(Cl)c2Cl)C1=O (centres unmarked) [CBK269306],86.7964
6,CC1=C[C@@H](CNS(=O)(=O)c2cccs2)[C@H](C(C)C)C[C@H]1CC(=O)O [CBK289210],93.6588
7,COc1cc(C(C)c2cc3c(cc2O)OCO3)cc(OC)c1OC (centres unmarked) [CBK200103],15.4845
8,COc1ccc(-c2ocnc2C(=O)NCCc2ccccc2F)cc1 [CBK283941],63.9646
9,CC1(C)CC(=O)c2sc(NC(=O)C3CC3)nc2C1 [CBK287329],106.76
10,Nc1ncc(-c2ccc(C(=O)N3CCOCC3)cc2)nc1-c1ccc(Cl)s1 [CBK138510],94.2153
11,COC(=O)c1c(NC(=O)CC2NCCNC2=O)sc(C)c1C (centres unmarked) [CBK269447],109.595
12,CCN(CC)C(=O)Cn1c(=O)n(CC)c2ncccc21 [CBK282347],93.9771
13,CCOc1ccc(-c2nc(CSc3n[nH]c(=O)n3Cc3ccccc3)cs2)cc1 [CBK296737],106.926
14,Cc1ccc(CN[C@@H]2COC[C@H]2Cc2cc(C)no2)cc1 [CBK283030],77.7584
15,Cn1c(N2CCCC(C(N)=O)C2)nc2ccccc21 (centres unmarked) [CBK282372],115.159
16,Cc1ccc(-c2cnc(NC(=O)Cn3cccn3)n2C)cc1C [CBK281727],71.8579
17,O=C(CN(c1cccc(Cl)c1)S(=O)(=O)c1ccccc1)Nc1cccc2cccnc12 [CBK263270],73.9418
18,C=CCN1CCC2(CC1)CN(C(C)=O)Cc1cc(C)ccc1O2 [CBK282693],108.536
19,COC(=O)c1ccc(Oc2nc(OC)cc(OC)n2)cc1 [CBK092221],90.8833
20,COc1ccc2[nH]c3c(c2c1)CCNC31CCN(CCSc2ccccc2)C1 (centres unmarked) [CBK084541T],48.5095
21,CC(=O)NCc1cccc(-c2cc(C(=O)NCC3CN(Cc4ccccc4)CCO3)cnc2-c2ccc(Cl)cc2)c1 (centres unmarked) [CBK164416T],103.806
22,CN(CC(=O)NCc1ccc(OCC(N)=O)cc1)C1CCCCC1 [CBK306331],70.0249
23,O=C(NC(c1cccc([N+](=O)[O-])c1)c1cc(Cl)c2cccnc2c1O)c1cccnc1 (centres unmarked) [CBK263987],101.145
24,Cc1c(O)ccc2c(COC(=O)C3(c4ccccc4)CCCC3)cc(=O)oc12 [CBK295622],86.5165
25,COc1cc(-c2cncc(N3CCC(C(=O)O)CC3)n2)cc(OC)c1OC [CBK037973],60.1696
26,Cc1cc(C)nc(SCC(=O)Nc2cccc(C(=O)O)c2)n1 [CBK263214],105.424

row,SMILES,% of control remaining
1,Cc1ccc(-c2c[nH]c([C@@H]3COCCN3Cc3c[nH]cn3)n2)cc1 [CBK289315],126.47
2,O=C(Nc1ccc2c(c1)nc1n2CCN(Cc2ccccc2)C1)NC1CCCCC1 [CBK267033],99.412
3,CS(=O)(=O)N1CCc2cc(-c3csc(NCC(F)(F)F)n3)ccc21 [CBK305650],67.406
4,CC(C)(C)c1ccc(O)c(NC(=S)NC(=O)c2ccccc2I)c1 [CBK264399],90.6127
5,O=C(Nc1cc(Oc2cccnc2)cc([N+](=O)[O-])c1)c1nn2c(C(F)(F)F)cc(-c3cccs3)nc2c1Br [CBK262535],103.428
6,CC(C)[C@@H](CO)Nc1nc(-c2cncnc2)cnc1N [CBK063735],163.86
7,C/C(=N\Nc1cccc2cccnc12)C(C)(C)C [CBK021957],87.6833
8,COc1cccc(NC(=O)NC(=O)C2CCN(C(C)C)CC2)c1 [CBK034798],82.2925
9,O=C(Nc1ccncc1)c1cnc2cc(C(F)(F)F)ccc2c1O [CBK116633T],83.0719
10,CSc1ccc(-n2cc(-c3ccc(F)cc3F)nn2)cc1 [CBK112979],95.6854
11,CC(C)c1ccccc1NC(=O)NC(=O)C1CCN(CCc2ccc(C#N)cc2)CC1 [CBK035010],93.1362
12,COC(=O)Nc1ccc2c(c1)N(C(=O)CCN(C)C)c1ccccc1CC2 [CBK262972C],65.1676
13,CN1CCC(C(=O)NC(=O)NCCOc2cccc3ccccc23)CC1 [CBK051100],74.0261
14,CC(=O)Nc1ccc(S(=O)(=O)NC2(C(F)(F)F)C(=O)Nc3c2c(=O)[nH]c(=O)n3CCc2ccccc2)cc1 (centres unmarked) [CBK267937],94.8785
15,Cc1cc(Br)c(O)c(C(=O)N(C)CC(=O)Nc2cc(C)on2)c1 [CBK306002],79.6541
16,Cc1nn(C(C)CC(=O)NCCN2CCc3ccccc32)c(C)c1C (centres unmarked) [CBK282675],108.117
17,O=C(Cn1cccc2cc(-c3ccc(F)cc3)nc1-2)N1CCOCC1 [CBK284809],104.452
18,COc1ccccc1N(CC(=O)Nc1c(C)cccc1C)S(=O)(=O)c1ccc(C)cc1 [CBK264810],111.366
19,N/C(=N\OC(=O)CSc1ccccc1)c1ccccn1 [CBK266056],99.8317
20,COC1CCC(C(=O)N2CCC(COc3ccc(-c4ccc(S(C)(=O)=O)cc4)cn3)CC2)CC1 (centres unmarked) [CBK161995],65.3809
21,CC1CCN(S(=O)(=O)c2cccc3c(S(=O)(=O)N4CCC(C)CC4)cccc23)CC1 [CBK262071],84.0462
22,COc1cc(-c2cnc3cccnc3c2N)cc(OC)c1OC [CBK081190],80.2475
23,O=C(O)CCC(=O)Nc1ccccc1C(=O)NC1CCCCC1 [CBK267674],81.8957
24,Cc1ccc(OCC(=O)N2CCN(C(=O)c3cccs3)CC2)c([N+](=O)[O-])n1 [CBK297152],70.2552
25,Cn1c(SCC(=O)Nc2cc(C(C)(C)C)no2)nnc1-c1ccc(C(C)(C)C)cc1 [CBK297133],82.3166
26,CC(=O)Nc1ccc(NC(=O)Cc2n[nH]c(=S)n2Cc2ccccc2)cc1 [CBK296754],99.2253

row,SMILES,% of control remaining
1,NC(=O)CSc1nnc(NC(=O)c2ccc(Cl)cc2Cl)s1 [CBK287627],124.615
2,Cc1cccc(CC(=O)N2CCC(Cc3ccc(-c4cccc(C)c4)cc3)(C(N)=O)CC2)c1 [CBK285798],65.2988
3,COc1ccc(-c2nc(C#N)c(NCCN3CCOCC3)o2)cc1 [CBK265769],94.6532
4,CSc1nnc(CC2CCN(C(=O)c3ccc(C)cc3F)CC2)n1C [CBK306939],81.1513
5,O=C(CO)N1CC2(CCN(CCc3c[nH]c4ccccc34)CC2)c2ccccc21 [CBK131503],85.9284
6,COc1ccc2nc(NC(=O)c3ccc4c(c3)OCCO4)sc2c1 [CBK287572],100.25
7,Cn1nc(C(C)(C)C)cc1NC(=O)CN1CCc2cncnc2C1 [CBK304934],45.8996
8,O=C(NCc1cccnc1)N1CCN(c2ccccc2)CC1 [CBK155178],96.8898
9,COc1ccc(-c2c3c(nc4sc(C(=O)N5CCOCC5)c(N)c24)CC(C)(C)CC3=O)cc1 [CBK131884],76.1861
10,O=C1Nc2ccc(S(=O)(=O)NCC(O)c3ccc([N+](=O)[O-])cc3)c3cccc1c23 (centres unmarked) [CBK266745],96.2907
11,Cn1cccc1C(=O)NCCNC(=O)c1cc2ccccc2[nH]1 [CBK297894],61.0658
12,COc1ccc(C)cc1-n1ccc(C(=O)N2CCSCC2)n1 [CBK305972],75.2896
13,C/C(=N\NC(=O)CCC(=O)Nc1ccccc1C)c1ccc(O)cc1O [CBK261946],106.135
14,Cc1cc(C(=O)N2CC3CCCC(O)(c4cccn4C)C3C2)c(C)[nH]1 (centres unmarked) [CBK284514],95.1975
15,Cc1ccc(/C=C/C(=O)O)cc1S(=O)(=O)NCCO [CBK264404],132.831
16,Cc1ccc2oc([C@H]3CN(C(=O)C4CCN(C(=O)OC(C)(C)C)CC4)C[C@@H]3C(=O)O)cc2c1 [CBK001601],107.794
17,O=c1n(C(c2ccccc2)c2ccccc2)ccn1S(=O)(=O)c1ccc(Oc2ccccc2)cc1 [CBK106624],93.9895
18,COc1ccc(CC(=O)N2CCCC(c3nc(C)c4c(n3)N(CC3CC3)CCC4)C2)cc1 (centres unmarked) [CBK286228],3.477
19,O=C(CNS(=O)(=O)c1cccc(Cl)c1)Nc1ccc(-c2nc3ccccc3s2)cc1 [CBK267178],115.429
20,CC1(C)CC(=O)c2c(O)cc(OCC(=O)c3ccc(Cl)c(Cl)c3)cc2O1 [CBK267573],96.8476
21,O=C1/C(=C/NCc2cccnc2)C(c2ccccc2)=NN1c1ccc([N+](=O)[O-])cc1 [CBK262911],120.464
22,COc1ccc(C2(C(=O)NCc3cnc(C)cn3)CC2)cc1 [CBK149830],95.8243
23,CC(C)CN1CCCN(S(=O)(=O)c2ccc(-n3cnc(Cl)c3Cl)cc2)CC1 [CBK063017],93.5747
24,Cc1nc(SCC(N)=O)nc(C)c1CCC(=O)NCc1ccc(F)cc1 [CBK295201],108.916
25,O=C(O)c1cc(S(=O)(=O)Nc2nnc(C(F)(F)F)s2)c(F)cc1Cl [CBK062022],101.199
